Data from the supplement of paper PMC4166925.
± gives the standard deviation of the averaged measurements. Over roughly 33,000 sequences, “E-score (dimensionless, -0.5 to 0.5)” has its median near -0.046; the highest 2% begin near 0.36. The list shows a part of the results.

Tested on: T1, SpTbr T-box DNA-binding domain (GST fusion)
T1 sequence: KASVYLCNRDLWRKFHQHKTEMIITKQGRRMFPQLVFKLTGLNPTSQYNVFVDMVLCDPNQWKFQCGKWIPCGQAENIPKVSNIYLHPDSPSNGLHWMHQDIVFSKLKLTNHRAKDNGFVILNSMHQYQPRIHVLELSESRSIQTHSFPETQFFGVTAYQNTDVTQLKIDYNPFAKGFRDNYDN
Test: PBM E-score of 8-mer (E-score (dimensionless, -0.5 to 0.5)); Tbr is Tbrain of the sea star Patiria miniata (Pm) or the sea urchin Strongylocentrotus purpuratus (Sp); higher = stronger binding preference; most listed sequences are background and not binding sites
Details: the construct has about 5 more residues each side
Method: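 Universal protein-binding microarray (Agilent AMADID 016060, 60-bp probes with a 35-bp variable region) incubated with 200 nM GST-fused Strongylocentrotus purpuratus Tbr T-box DNA-binding domain (residues 362-554) in PBS pH 7.5. Scored for every ungapped 8-mer (given with its reverse complement) as E-score (range -0.5 to 0.5; >0.45 counts as bound) and Z-score of median probe intensity. Two replicate arrays (datasets 1 and 2).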
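Note: protein at 200 nM in PBS on universal double-stranded arrays.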

In order of falling “PBM E-score of 8-mer” value:
1. GAGTGTTA  0.386 ± 0.021
2. CAGGTGTA  0.358 ± 0.0037
3. CACCACAC  0.3556 ± 0.0015
4. GGTGCTGA  0.337 ± 0.044
5. CCGCGTGA  0.3326 ± 0.0012
6. CGCACACC  0.327 ± 0.036
7. CGGCGCGA  0.3178 ± 0.00058
8. GATTGCGA  0.262 ± 0.017
9. CGCAATCA  0.254 ± 0.044
10. ACCCGACA  0.247 ± 0.0042
11. ACAACACG  0.239 ± 0.0031
12. AGTTTCGC  0.232 ± 0.013
13. GATGCCAC  0.23 ± 0.013
14. CCCGCTAA  0.229 ± 0.012
15. CGTGACAG  0.217 ± 0.019
16. CGGTTGAC  0.2058 ± 0.0018
17. CGATTGAC  0.17 ± 0.033
18. CAAGCGTC  0.167 ± 0.013
19. CACTAGTA  0.163 ± 0.075
20. CGACGCGA  0.159 ± 0.068
21. CCGAGTGA  0.157 ± 0.02
22. CCTGACAA  0.153 ± 0.0094
23. CATTGCCA  0.152 ± 0.021
24. TATCGTCA  0.149 ± 0.019
25. ACGGTGCT  0.143 ± 0.012
26. ATCACTCA  0.139 ± 0.018
27. ACATCCAC  0.136 ± 0.025
28. AACAGATA  0.128 ± 0.033
29. GGCACTAA  0.126 ± 0.055
30. ACGCGGAC  0.123 ± 0.078
31. GATCCGCA  0.117 ± 0.044
32. CAACATTG  0.11 ± 0.029
33. CGAGATCA  0.108 ± 0.0073
34. ATCCGACA  0.108 ± 0.011
35. GCGCGGAA  0.104 ± 0.06
36. CCGGGTCG  0.102 ± 0.015
37. ACGCGGCT  0.101 ± 0.014
38. CGTGGTGA  0.0947 ± 0.012
39. CCACACAA  0.0877 ± 0.025
40. ACTTTCAA  0.0855 ± 0.0062
41. CTTGTAGC  0.0838 ± 0.014
42. CAACTTCG  0.0821 ± 0.006
43. GGTGTATA  0.0761 ± 0.077
44. CGAACGAC  0.0742 ± 0.007
45. ACCCGATA  0.0716 ± 0.03
46. GACTTACA  0.071 ± 0.04
47. CGCGGTGC  0.0699 ± 0.082
48. AGCCGACG  0.0538 ± 0.072
49. CCCAGCAC  0.0519 ± 0.051
50. AGGCGGGA  0.0497 ± 0.0048
51. ATCTGCAC  0.0473 ± 0.028
52. ATCCACAT  0.046 ± 0.0025
53. ACGGCTTA  0.0426 ± 0.051
54. AATATTTG  0.0401 ± 0.029
55. ACTTCGTG  0.037 ± 0.07
56. CTATAAGC  0.0365 ± 0.056
57. CTGCTAGA  0.0342 ± 0.0095
58. ACCTATAA  0.0305 ± 0.073
59. GGGAGCGA  0.0295 ± 0.041
60. ACTAGCAA  0.0287 ± 0.046
61. CCAGGGTC  0.0269 ± 0.035
62. ACCTTAAC  0.0189 ± 0.043
63. CCACGCCA  0.0158 ± 0.022
64. ACACCGGA  0.0158 ± 0.026
65. CAGTGAAC  0.0151 ± 0.01
66. ACGCCAGA  0.00969 ± 0.053
67. AGGCTGTC  0.00841 ± 0.0021
68. GCGGTGCC  0.00669 ± 0.075
69. CCTATATA  0.000255 ± 0.073
70. ACAATGGT  -0.00439 ± 0.055
71. GAGGGCTA  -0.00456 ± 0.025
72. GAGGAAAC  -0.00485 ± 0.068
73. CGGCAAGA  -0.00583 ± 0.057
74. CCGAAGCA  -0.00602 ± 0.051
75. AGATTTAT  -0.00615 ± 0.033
76. GCTGCGTA  -0.00783 ± 0.012
77. AGCGCGGG  -0.009 ± 0.12
78. CATACATC  -0.0101 ± 0.062
79. CCATAGTC  -0.0156 ± 0.029
80. CTGCTGTC  -0.0164 ± 0.04
81. AAAGTACA  -0.0207 ± 0.1
82. CATCCAGA  -0.0238 ± 0.059
83. GACTTTCC  -0.0261 ± 0.013
84. ATCGAGTC  -0.0285 ± 0.051
85. TAAATCGA  -0.0294 ± 0.035
86. CCCGGCCG  -0.0304 ± 0.0027
87. GACGTAAA  -0.0319 ± 0.036
88. TTAGGCAA  -0.0324 ± 0.01
89. AACCGTCC  -0.0341 ± 0.016
90. TGACTGAA  -0.0347 ± 0.091
91. CAGACCCA  -0.0355 ± 0.018
92. GATAAGTA  -0.0412 ± 0.026
93. CTTCGGGA  -0.0424 ± 0.024
94. GATCTAAA  -0.0448 ± 0.006
95. ACAATCTA  -0.0483 ± 0.0064
96. AGACACGA  -0.0522 ± 0.047
97. ACCAGGCC  -0.0574 ± 0.021
98. AACCCCAA  -0.0577 ± 0.052
99. GCTGGTAC  -0.0633 ± 0.098
100. AGCCCACT  -0.0662 ± 0.087
101. CAGTGGGG  -0.0704 ± 0.058
102. AAACAGTG  -0.071 ± 0.047
103. AATTACAA  -0.0716 ± 0.01
104. GGGTACCC  -0.0754 ± 0.026
105. CAAGCTAA  -0.0767 ± 0.036
106. TCTGATCA  -0.0796 ± 0.0032
107. CCACTCCA  -0.0799 ± 0.07
108. AAAAATAG  -0.0913 ± 0.013
109. ACCGGATG  -0.0915 ± 0.031
110. GTAACCAA  -0.094 ± 0.078
111. AGGATGAT  -0.095 ± 0.066
112. ACTTTGAT  -0.101 ± 0.076
113. CAGGTACG  -0.105 ± 0.078
114. CATCTGGG  -0.105 ± 0.05
115. AAGAAAAT  -0.108 ± 0.19
116. AGACGATG  -0.109 ± 0.038
117. ACTAGAGG  -0.111 ± 0.025
118. GAATGGTC  -0.112 ± 0.044
119. CCCGCATC  -0.12 ± 0.047
120. AGATTCTG  -0.121 ± 0.051
121. AACTAGAG  -0.121 ± 0.15
122. CGAAAATC  -0.126 ± 0.091
123. AGTACCTG  -0.129 ± 0.045
124. GACTCGCC  -0.131 ± 0.0047
125. GCTTAGCC  -0.131 ± 0.015
126. GATAAGAC  -0.132 ± 0.031
127. CATGCGGG  -0.14 ± 0.065
128. ACCTGTAC  -0.148 ± 0.024
129. GCTGGATA  -0.149 ± 0.026
130. GGCATCCC  -0.152 ± 0.038
131. ATACGGGA  -0.154 ± 0.055
132. CATATCAG  -0.155 ± 0.0067
133. ATCTACCG  -0.155 ± 0.064
134. GAGCATCA  -0.158 ± 0.0076
135. AACATAAA  -0.159 ± 0.017
136. AATGGTAC  -0.165 ± 0.035
137. AGCTACAT  -0.165 ± 0.078
138. GCCTGCGC  -0.167 ± 0.0057
139. TACGGCAA  -0.1681 ± 0.001
140. CCATTCTA  -0.169 ± 0.086
141. TCAAGCAA  -0.175 ± 0.042
142. AGACCTCG  -0.175 ± 0.029
143. GACTACTA  -0.176 ± 0.055
144. GTCGTAGA  -0.177 ± 0.018
145. CGTAAAGA  -0.177 ± 0.085
146. GTCCAATA  -0.183 ± 0.036
147. CAAAGCCA  -0.183 ± 0.032
148. GCCCAGGA  -0.1827 ± 0.0014
149. AGGGGAGG  -0.19 ± 0.0058
150. CTTCCTGA  -0.192 ± 0.0037
151. CCATACGG  -0.202 ± 0.018
152. GGCTCAGA  -0.208 ± 0.0087
153. GAGACATC  -0.213 ± 0.051
154. GCGTCCTA  -0.213 ± 0.026
155. AAGCGATT  -0.217 ± 0.036
156. ATTCCAGG  -0.218 ± 0.03
157. GGGGACGA  -0.218 ± 0.092
158. AGACTCCG  -0.222 ± 0.046
159. GAGACGCA  -0.224 ± 0.062
160. AGCGTCCA  -0.224 ± 0.015
161. GATACTCA  -0.225 ± 0.0066
162. ATTAAGAG  -0.232 ± 0.011
163. GGGATGCA  -0.24 ± 0.051
164. ACCAGCCC  -0.241 ± 0.056
165. CATGTAGA  -0.248 ± 0.053
166. AGCCGTCC  -0.252 ± 0.0058
167. CCCGTCCA  -0.253 ± 0.03
168. GATGCCTA  -0.279 ± 0.11
169. ATGGCTAC  -0.29 ± 0.017
170. GAAGGGCC  -0.301 ± 0.0059
171. AATACTGG  -0.329 ± 0.041
172. AGCCCCCT  -0.356 ± 0.013
